# Reference: PMC4336329 (PLoS ONE, 2015)
# The campaign covered roughly 310,000 compounds. About 14,000 (4.5%) showed an effect of 50% or more. The effect is printed as a negative number. The list shows a part of the results.
# Target: human ether-à-go-go-related gene (hERG) potassium channel (human, UniProt Q12809)
# Experiment: primary screen, population patch clamp on CHO cells stably expressing hERG
# 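Also: peak tail current of the secondary pulse compared with the same well before compound.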
# human ether-à-go-go-related gene (hERG) potassium channel, sequence (Q12809 whole entry, looked up): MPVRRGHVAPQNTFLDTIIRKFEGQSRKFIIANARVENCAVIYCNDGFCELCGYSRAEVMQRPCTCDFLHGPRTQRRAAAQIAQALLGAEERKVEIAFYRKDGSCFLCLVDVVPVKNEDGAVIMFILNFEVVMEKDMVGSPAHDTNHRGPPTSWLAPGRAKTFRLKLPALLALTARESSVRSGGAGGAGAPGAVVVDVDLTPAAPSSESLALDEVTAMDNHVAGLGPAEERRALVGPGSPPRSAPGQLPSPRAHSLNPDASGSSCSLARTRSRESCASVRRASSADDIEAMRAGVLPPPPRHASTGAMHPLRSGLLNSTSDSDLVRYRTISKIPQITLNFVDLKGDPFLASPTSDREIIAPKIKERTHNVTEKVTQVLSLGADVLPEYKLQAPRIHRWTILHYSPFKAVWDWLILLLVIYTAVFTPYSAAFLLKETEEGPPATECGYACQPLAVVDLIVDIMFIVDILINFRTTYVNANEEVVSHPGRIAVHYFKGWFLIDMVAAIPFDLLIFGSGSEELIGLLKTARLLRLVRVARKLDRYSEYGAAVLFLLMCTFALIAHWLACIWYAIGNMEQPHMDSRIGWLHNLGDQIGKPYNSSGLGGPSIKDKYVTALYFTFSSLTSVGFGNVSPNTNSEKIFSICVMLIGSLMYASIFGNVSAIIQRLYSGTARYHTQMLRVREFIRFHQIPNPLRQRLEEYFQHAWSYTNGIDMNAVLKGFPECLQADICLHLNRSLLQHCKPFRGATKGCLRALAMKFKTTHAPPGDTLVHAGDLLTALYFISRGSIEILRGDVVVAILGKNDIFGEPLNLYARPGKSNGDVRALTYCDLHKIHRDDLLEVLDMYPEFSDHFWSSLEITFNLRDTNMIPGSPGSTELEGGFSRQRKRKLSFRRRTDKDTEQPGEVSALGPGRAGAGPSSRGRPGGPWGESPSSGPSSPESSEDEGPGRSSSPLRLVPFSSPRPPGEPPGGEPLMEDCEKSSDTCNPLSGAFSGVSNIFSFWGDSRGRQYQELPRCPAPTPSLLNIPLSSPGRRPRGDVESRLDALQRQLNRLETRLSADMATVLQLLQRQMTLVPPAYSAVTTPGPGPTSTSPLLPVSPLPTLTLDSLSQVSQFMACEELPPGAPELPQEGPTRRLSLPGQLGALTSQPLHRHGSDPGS
row,SMILES,"hERG current change (%, negative = inhibition) at 10uM"
1,CSc1ccccc1OCc1cc(C(=O)NCCn2ccnc2C)no1,-31.3%
2,CCOC(=O)C1=C(c2ccccc2)NC(=O)NC1c1ccc(O)c(OCC)c1 (centres unmarked),15.6%
3,CN(C)c1ccc(/C=C/C(=O)c2ccc(C(C)(C)C)cc2)cc1[N+](=O)[O-],2.55%
4,O=C(O)[C@@H]1CCCN1S(=O)(=O)c1cccc2cccnc12,-1.77%
5,O=C(Oc1ccc(C(=S)N2CCC(O)CC2)cc1)c1ccc(Cl)cc1,-11.8%
6,COCCn1c(SCC(=O)N2CCC(C)CC2)nc2ccccc2c1=O,-62.8%
7,CC1=C(C(=O)O)N2C(=O)C(NC(=O)c3nn(C)c(C)c3Cl)C2SC1 (centres unmarked),10.9%
8,O=C(NCC1(c2ccccc2)CCCC1)c1ccccc1,2.4%
9,CCOC(=O)CC(=O)N/N=C/c1c(N)n(C)c(=O)n(C)c1=O,-32.3%
10,COc1ccc(S(=O)(=O)Nc2cccc(-c3ccc(N4CCCCCC4)nn3)c2)c(OC)c1,18.7%
11,Cc1ccc(C(=O)OCC(=O)Nc2ncc(C(F)(F)F)cc2Cl)cc1NC(=O)c1ccco1,-50.1%
12,CCOC(=O)CCCCC(=O)NC(CO)C(=O)NC (centres unmarked),4.65%
13,CN(C)C(CNC(=O)c1ccc(C(=O)c2ccccc2)cc1)c1ccccc1 (centres unmarked),-25.8%
14,CCN1CCN(C(=O)Cc2coc3cc(C)cc(C)c23)CC1,-18%
15,O=C(COC(=O)CCCSc1nc2ccccc2[nH]1)Nc1ccc(Cl)cc1,-23.5%
16,O=C(/C=C/c1c[nH]c2ccccc12)c1c(O)n(CCc2ccccc2)c(=O)[nH]c1=O,7.22%
17,CCN(CC(=O)Nc1ccc(OC)cc1)C(=O)COc1cccc2c1OC(C)(C)C2,-14.1%
18,COc1cc(NC(=O)CSc2nc3ccccc3cc2C)c(C(=O)O)cc1OC,8.57%
19,CCCc1cc(C(=O)NCC(C)C)no1,0.36%
20,COc1ccc(OC)c(-c2nn(-c3ccccc3)cc2C(=O)NCC2CCCO2)c1 (centres unmarked),2.13%
21,O=CN1c2ccccc2CSc2ccccc21,25.1%
22,COc1ccc(CCNC(=O)C2CCCN(C(=O)N(C)C)C2)c(OC)c1 (centres unmarked),8.16%
23,Cn1c(SCC(=O)c2ccc3c(c2)OCO3)nnc1-c1ccccn1,13.2%

row,SMILES,"hERG current change (%, negative = inhibition) at 10uM"
1,Cc1cc(N2CCN(C(=O)c3ccco3)CC2)n2ncc(-c3ccccc3)c2n1,-50.5%
2,Cn1cnnc1SCC(=O)Nc1nc(-c2ccc(F)cc2)cs1,13%
3,Cc1cccc(NC(=O)c2ccc3c(c2)CCN3S(C)(=O)=O)c1,8.76%
4,COc1ccc(CNC(=O)CN2C(=O)C(c3ccccc3)Oc3cccnc32)cc1 (centres unmarked),-11%
5,CCN(CC)C(=O)Cn1c(=O)n(-c2ccccc2)c(=O)c2sccc21,9.94%
6,CCc1cc2cc(C(=O)Nc3ccccc3F)sc2s1,-0.577%
7,CCc1nn(CCCC(=O)N2CCc3ccccc3C2)c(=O)c2cc3occc3n12,-29%
8,CCN(CC)CCCNC(=O)Cn1cc2c(n1)CCC(C)C2 (centres unmarked),2.88%
9,Cc1ccc(-n2nnc(-c3cccnc3)n2)cc1,6.05%
10,CC1=C(C(=O)OC(C)C)C(c2cccs2)N2C(=O)CCSC2=N1 (centres unmarked),-11.5%
11,O=C(NCCN1CCCCC1)c1ccc(F)cc1Cl,9.65%
12,COc1ccc(N2CCN(C(=O)COC(=O)Cc3ccc(F)cc3)CC2)cc1,-20%
13,OC(c1ccccn1)C1CCN(Cc2nc(C(c3ccccc3)c3ccccc3)no2)CC1 (centres unmarked),-9.22%
14,CCOC(=O)C(C(=O)OCC)=C1OC(=O)c2ccccc21,3.02%
15,COC(=O)c1cc(Br)ccc1NC(=O)Nc1ccc(C)cc1,7.58%
16,OCCC1CN(Cc2cc3ccccc3o2)CCN1Cc1ccc(F)cc1 (centres unmarked),-11.8%
17,CCOC(=O)Nc1sc(=S)n(C)c1C,-1.04%
18,O=C(COc1ccc(S(=O)(=O)N2CCOCC2)cc1)N1CCOCC1,10.6%
19,CCc1cc2c(=O)c(-c3cscn3)coc2cc1O,5.58%
20,O=C(CCS(=O)(=O)c1ccccc1)NCc1ccccc1,-4.29%
21,c1ccc(CNc2cnccn2)cc1,-0.449%
22,O=C(CSc1nc(-c2cccs2)cc(C(F)(F)F)n1)NCc1ccccc1,-22.5%
23,COc1ccc(/C=N/NC(=O)c2cnccn2)cc1O,-0.205%

row,SMILES,"hERG current change (%, negative = inhibition) at 10uM"
1,CCC1CCCCN1S(=O)(=O)c1ccc2c(c1)CCN2C(=O)C1CCC1 (centres unmarked),-6.68%
2,COCCNCC(=O)Nc1ccc(OC(F)(F)F)cc1.Cl,-33.9%
3,CCN(CC(=O)NCc1ccc(F)cc1)Cc1cc(=O)n2ccsc2n1,-6.04%
4,CC(NC(=O)c1ccccc1Br)c1nnc(SCC(=O)NC2=NCCS2)n1C (centres unmarked),12.6%
5,CCCCCCn1c(N)c(C#N)c2ccc([N+](=O)[O-])cc2c1=O,17.9%
6,COc1cccc(/C=C2\CCCCC2=O)c1,9.62%
7,O=C(CN1C(=O)c2ccccc2C1=O)Nc1ccccc1C(=O)NC1CCCCCC1,-4.23%
8,O=C(Nc1ccc(N2CCCC2)cc1)C(c1ccccc1)c1ccccc1,11.2%
9,CC(=O)Nc1ccc(S(=O)(=O)N(C)S(=O)(=O)c2ccc(F)cc2)cc1,-63.3%
10,COc1ccc(OC)c(S(=O)(=O)N2C(C)CCCC2C)c1 (centres unmarked),-7.42%
11,COc1cccc(NC(=O)CN(C)C(=O)Cn2c(=O)oc3ccccc32)c1,9.04%
12,CCOC(=O)C1C(=O)NC(c2ccccc2)=NC1c1ccc(O)c(OC)c1 (centres unmarked),9.11%
13,Cc1ccc(C)c(NC(=O)c2ncn[nH]2)c1,2.63%
14,Cc1ccc2cc(C#N)c(N3CCCC3)nc2c1C,7.87%
15,O=C(C1CCC(=O)N1Cc1ccc(F)cc1)N1CCC2(CC1)OCCO2 (centres unmarked),13.8%
16,CCC(C)NC(=O)C(=O)NCC1CCCN1CC (centres unmarked),6.68%
17,O=[N+]([O-])c1ccccc1N/N=C/c1cc2ccccc2nc1Cl,14.8%
18,Cc1ccc(-c2cc(C(=O)Nc3cccnc3)c3ccccc3n2)o1,-8.27%
19,C=CCn1c(Oc2ccc(C(=O)OC)cc2)nc2c1c(=O)n(C)c(=O)n2C,7.4%
20,OCCNCCc1c[nH]c2ccc(OCc3ccccc3)cc12,-7.1%
21,CC(C)(C)c1cc(Br)c(O)c(N=Nc2ccc(S(=O)(=O)N3CCOCC3)cc2)c1,6.46%
22,Cc1cc(C)c(S(=O)(=O)NCCn2ccc3ccccc32)c(C)c1,9.34%
23,Cc1ccnc2ccc(-c3nc4ccccc4o3)cc12,1.44%

row,SMILES,"hERG current change (%, negative = inhibition) at 10uM"
1,CC12CCC(C(=O)N3CCC(Cc4ccccc4)CC3)(C(=O)C1=O)C2(C)C (centres unmarked),-4.1%
2,COc1ccc(-c2[nH]ncc2/C=N\NC(=O)c2ccc(Br)o2)cc1OC,3.74%
3,CCS(=O)(=O)N1CCCC(C(=O)NC2CCCCC2)C1 (centres unmarked),17.4%
4,Cc1c(C(=O)N2CCCc3ccccc32)oc2ccccc12,10%
5,CCOC(=O)N1CCC(NC(=O)C2=CCN(S(=O)(=O)c3ccccc3)CC2)CC1,-1.74%
6,CCN(CC)C(=O)C(=O)Nc1ccc(Oc2ccccc2)cc1,-7.81%
7,CCOC(=O)c1cccc(NS(=O)(=O)c2c(C(=O)N3CCCCCC3)c(C)n(C)c2C)c1,-19.1%
8,CC(=O)Nc1ccc(NC(=O)C/C(C)=N/NC(N)=S)cc1,21.3%
9,CCCOc1ccc(CN(CCO)CCO)cc1C(=O)OC,6.82%
10,COC(=O)c1[nH]c2cc(OC)ccc2c1NC(=O)CCN1CCCCC1,-20.5%
11,COC(=O)c1ccc(NS(=O)(=O)c2ccc(SC)cc2)cc1,-2.34%
12,COc1ccccc1C/C(N)=N/OC(=O)COc1cccc2ccccc12,0.495%
13,Cc1n[nH]c(=O)n1-c1ccc(C(C)(C)C)cc1,23%
14,COc1ccc(CNC(=O)c2ccc(CS(=O)(=O)c3ccccc3C)o2)cc1,-12.3%
15,COCCNC(=O)CCc1c(C)nc2c(c(C)nn2-c2ccc(C)cc2)c1C,-17.6%
16,Oc1c(C=C2N=c3ccccc3=N2)sc(=S)n1-c1ccc(F)cc1 [17401255],17.9%
17,CC(C)S(=O)(=O)c1csc(NC(=O)Nc2ccc(Cl)cc2)c1,5.92%
18,Cc1cc(N2CCCC2)ccc1/C=C1/C(=O)N(C)C(=S)N1C,12.6%
19,COc1cc(CNCCSc2nnnn2C)cc(OC)c1OC.Cl,-2.79%
20,CC1=C(C(N)=O)C(c2cccc(O)c2)n2nc(CCCO)nc2N1 (centres unmarked),13.1%
21,CCCCCSc1cc(OC)c(CCN(C)C)cc1OC.O=C(O)/C=C\C(=O)O,-57.9%
22,COCCn1c(SCC(=O)N2CCCC2=O)nc2sc(C)c(C)c2c1=O,-11.9%
23,Cc1c(C(=O)Nc2ccc3c(c2)OCCO3)cnn1C,-6.25%
